The supplement of paper PMC10369915
This is one part of the list. Cut-off read from the data, not from the text of the source: active = 3.2 or more and inactive = the rest. Only a few entries rise above the background.

Key:
Assay in all cases: enrichment score (SH2-bound / input frequency) (ratio); bacterial display of known human phosphotyrosine sites (pTyr-Var adds point mutants) read by sequencing; higher = stronger binding; tyrosines were phosphorylated by kinases first
Settings in all cases: peptide library: pTyr-Var
SHP2 C-SH2 domain E139D = molecular target: SHP2 C-SH2 domain E139D
[1] = molecular target: SHP2 C-SH2 domain wild-type
SHP2 N-SH2 domain L43F = molecular target: SHP2 N-SH2 domain L43F
SHP2 N-SH2 domain T42A = molecular target: SHP2 N-SH2 domain T42A
SHP2 N-SH2 domain T52S = molecular target: SHP2 N-SH2 domain T52S
[2] = molecular target: SHP2 N-SH2 domain wild-type

Measured: enrichment score
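Note: displayed peptides selected on beads carrying the immobilized SH2 domain, with library peptides lacking any tyrosine serving as negative controls.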

HPYNSYTYPRL [PAK5_Y316_S312P]
inactive: SHP2 C-SH2 domain E139D 0.726 | [1] 1.29 | SHP2 N-SH2 domain L43F 0.756 | SHP2 N-SH2 domain T42A 0.827 | SHP2 N-SH2 domain T52S 0.712 | [2] 0.629

KILGTYYETGS [PAX2_Y72_R71T]
inactive: SHP2 C-SH2 domain E139D 0.823 | [1] 0.909 | SHP2 N-SH2 domain L43F 0.77 | SHP2 N-SH2 domain T42A 0.646 | SHP2 N-SH2 domain T52S 0.912 | [2] 0.879

EVQKDYEHLFK [PAM16_Y77_N76D]
inactive: SHP2 C-SH2 domain E139D 0.614 | [1] 0.594 | SHP2 N-SH2 domain L43F 0.607 | SHP2 N-SH2 domain T42A 0.514 | SHP2 N-SH2 domain T52S 0.508 | [2] 0.651

KIPGRYFETGS [PAX2_Y72_L69P_YF]
inactive: SHP2 C-SH2 domain E139D 1.14 | [1] 0.958 | SHP2 N-SH2 domain L43F 0.771 | SHP2 N-SH2 domain T42A 1.14 | SHP2 N-SH2 domain T52S 0.934 | [2] 0.724

FADIAYNYRRG [PAH_Y166_H170R]
inactive: SHP2 C-SH2 domain E139D 0.811 | [1] 0.53 | SHP2 N-SH2 domain L43F 0.621 | SHP2 N-SH2 domain T42A 0.526 | SHP2 N-SH2 domain T52S 0.551 | [2] 0.582

IPGRYYETGSI [PAX2_Y73_L69P]
inactive: SHP2 C-SH2 domain E139D 0.974 | [1] 1.04 | SHP2 N-SH2 domain L43F 1.12 | SHP2 N-SH2 domain T42A 0.841 | SHP2 N-SH2 domain T52S 1.04 | [2] 1.01

HKDNNYVSMWF [PAPOLG_Y432]
inactive: SHP2 C-SH2 domain E139D 0.774 | [1] 0.81 | SHP2 N-SH2 domain L43F 1.47 | SHP2 N-SH2 domain T42A 1.61 | SHP2 N-SH2 domain T52S 1.5 | [2] 0.6

EDASEYFENYI [PARP4_Y214]
inactive: SHP2 C-SH2 domain E139D 0.463 | [1] 0.517 | SHP2 N-SH2 domain L43F 0.485 | SHP2 N-SH2 domain T42A 0.479 | SHP2 N-SH2 domain T52S 0.633 | [2] 0.437

HCFNSYTFPRL [PAK7_Y316_S312C_YF]
inactive: SHP2 C-SH2 domain E139D 1.11 | [1] 1.42 | SHP2 N-SH2 domain L43F 1.2 | SHP2 N-SH2 domain T42A 1.1 | SHP2 N-SH2 domain T52S 1.06 | [2] 1.36

FADIAYNFRHG [PAH_Y166_YF]
inactive: SHP2 C-SH2 domain E139D 0.92 | [1] 1.01 | SHP2 N-SH2 domain L43F 0.944 | SHP2 N-SH2 domain T42A 0.865 | SHP2 N-SH2 domain T52S 0.944 | [2] 0.978

FSKDNYKRVTG [PANK2_Y405_YF]
inactive: SHP2 C-SH2 domain E139D 0.512 | [1] 0.474 | SHP2 N-SH2 domain L43F 0.389 | SHP2 N-SH2 domain T42A 0.367 | SHP2 N-SH2 domain T52S 0.409 | [2] 0.441

KILGRYYETGS [PAX2_Y72]
inactive: SHP2 C-SH2 domain E139D 1.57 | [1] 1.03 | SHP2 N-SH2 domain L43F 1.23 | SHP2 N-SH2 domain T42A 1.3 | SHP2 N-SH2 domain T52S 1.26 | [2] 1.56

FADIAYNYHHG [PAH_Y166_R169H]
inactive: SHP2 C-SH2 domain E139D 0.965 | [1] 0.738 | SHP2 N-SH2 domain L43F 0.854 | SHP2 N-SH2 domain T42A 0.677 | SHP2 N-SH2 domain T52S 0.722 | [2] 0.929

SILAVYSKDNY [PANK2_Y400]
inactive: SHP2 C-SH2 domain E139D 1.19 | [1] 0.898 | SHP2 N-SH2 domain L43F 0.978 | SHP2 N-SH2 domain T42A 0.902 | SHP2 N-SH2 domain T52S 0.982 | [2] 1.18

EFFENYIEELK [PARP4_Y218_F215Y_YF]
inactive: SHP2 C-SH2 domain E139D 1.14 | [1] 0.919 | SHP2 N-SH2 domain L43F 1.04 | SHP2 N-SH2 domain T42A 1.12 | SHP2 N-SH2 domain T52S 0.996 | [2] 1.19

HCYNSYTYPRL [PAK7_Y316_S312C]
inactive: SHP2 C-SH2 domain E139D 1.17 | [1] 1.47 | SHP2 N-SH2 domain L43F 1.65 | SHP2 N-SH2 domain T42A 0.997 | SHP2 N-SH2 domain T52S 1.19 | [2] 1.05

SILTVYSKDNF [PANK2_Y400_A398T_YF]
inactive: SHP2 C-SH2 domain E139D 0.851 | [1] 0.833 | SHP2 N-SH2 domain L43F 0.732 | SHP2 N-SH2 domain T42A 0.851 | SHP2 N-SH2 domain T52S 0.904 | [2] 0.716

DVLEFYNSKKT [PAK1_Y131]
inactive: SHP2 C-SH2 domain E139D 1.06 | [1] 1.09 | SHP2 N-SH2 domain L43F 0.914 | SHP2 N-SH2 domain T42A 0.996 | SHP2 N-SH2 domain T52S 0.966 | [2] 1.22

LIGTPYWMAPE [PAK5_Y608_V604I]
inactive: SHP2 C-SH2 domain E139D 1.34 | [1] 2.17 | SHP2 N-SH2 domain L43F 1.47 | SHP2 N-SH2 domain T42A 1.56 | SHP2 N-SH2 domain T52S 1.51 | [2] 1.24

FADIAYIFRHG [PAH_Y166_N167I_YF]
inactive: SHP2 C-SH2 domain E139D 2.01 | [1] 2.08 | SHP2 N-SH2 domain L43F 1.67 | SHP2 N-SH2 domain T42A 1.65 | SHP2 N-SH2 domain T52S 1.66 | [2] 1.91

HGEAYYSEVKA [PAK5_Y182_P187A]
inactive: SHP2 C-SH2 domain E139D 0.611 | [1] 0.704 | SHP2 N-SH2 domain L43F 0.766 | SHP2 N-SH2 domain T42A 0.703 | SHP2 N-SH2 domain T52S 0.555 | [2] 0.821

GQETSYIEDNC [PAH_Y24]
inactive: SHP2 C-SH2 domain E139D 0.869 | [1] 0.589 | SHP2 N-SH2 domain L43F 0.842 | SHP2 N-SH2 domain T42A 0.711 | SHP2 N-SH2 domain T52S 0.605 | [2] 1.1

EASGIYVKSVI [PATJ_Y396_I400V]
inactive: SHP2 C-SH2 domain E139D 0.689 | [1] 0.64 | SHP2 N-SH2 domain L43F 0.815 | SHP2 N-SH2 domain T42A 0.554 | SHP2 N-SH2 domain T52S 0.799 | [2] 0.866

EDASEYYENYI [PARP4_Y214_F215Y]
inactive: SHP2 C-SH2 domain E139D 0.65 | [1] 0.531 | SHP2 N-SH2 domain L43F 0.523 | SHP2 N-SH2 domain T42A 0.509 | SHP2 N-SH2 domain T52S 0.576 | [2] 0.547

HGEAFYSEVKP [PAK5_Y182_YF]
inactive: SHP2 C-SH2 domain E139D 0.796 | [1] 0.962 | SHP2 N-SH2 domain L43F 0.746 | SHP2 N-SH2 domain T42A 0.801 | SHP2 N-SH2 domain T52S 0.59 | [2] 0.71

FADIAYSFRHG [PAH_Y166_N167S_YF]
inactive: SHP2 C-SH2 domain E139D 1.01 | [1] 0.882 | SHP2 N-SH2 domain L43F 0.965 | SHP2 N-SH2 domain T42A 1.01 | SHP2 N-SH2 domain T52S 1.03 | [2] 0.886

HFMKLYEEKTG [PARP1_Y618]
inactive: SHP2 C-SH2 domain E139D 1.21 | [1] 1.31 | SHP2 N-SH2 domain L43F 1.34 | SHP2 N-SH2 domain T42A 0.913 | SHP2 N-SH2 domain T52S 1.2 | [2] 1.38

RTCSSYAIEKI [PARP15_Y520]
inactive: SHP2 C-SH2 domain E139D 1.04 | [1] 1.11 | SHP2 N-SH2 domain L43F 0.811 | SHP2 N-SH2 domain T42A 0.671 | SHP2 N-SH2 domain T52S 0.846 | [2] 0.916

HPFNSYTFPRL [PAK5_Y316_S312P_YF]
inactive: SHP2 C-SH2 domain E139D 1.12 | [1] 0.983 | SHP2 N-SH2 domain L43F 1.24 | SHP2 N-SH2 domain T42A 1.13 | SHP2 N-SH2 domain T52S 1.11 | [2] 0.961

FADIAYNFRQG [PAH_Y166_H170Q_YF]
inactive: SHP2 C-SH2 domain E139D 0.91 | [1] 0.811 | SHP2 N-SH2 domain L43F 0.949 | SHP2 N-SH2 domain T42A 0.909 | SHP2 N-SH2 domain T52S 0.891 | [2] 1.02

HGEAFYSEVKA [PAK5_Y182_P187A_YF]
inactive: SHP2 C-SH2 domain E139D 1.07 | [1] 1.4 | SHP2 N-SH2 domain L43F 1.05 | SHP2 N-SH2 domain T42A 0.907 | SHP2 N-SH2 domain T52S 0.932 | [2] 1.1

RTCSSYTIEKI [PARP15_Y520_A521T]
inactive: SHP2 C-SH2 domain E139D 0.532 | [1] 1.05 | SHP2 N-SH2 domain L43F 0.861 | SHP2 N-SH2 domain T42A 0.647 | SHP2 N-SH2 domain T52S 0.386 | [2] 0.904

HLATEYVFSDF [PANX1_Y10_Q5H]
inactive: SHP2 C-SH2 domain E139D 1.01 | [1] 0.927 | SHP2 N-SH2 domain L43F 0.893 | SHP2 N-SH2 domain T42A 1.08 | SHP2 N-SH2 domain T52S 1.04 | [2] 0.957

KILGRYYETSS [PAX2_Y72_G76S]
inactive: SHP2 C-SH2 domain E139D 1.23 | [1] 0.891 | SHP2 N-SH2 domain L43F 1.07 | SHP2 N-SH2 domain T42A 0.935 | SHP2 N-SH2 domain T52S 1.22 | [2] 1.22

SILAVYSKDIY [PANK2_Y400_N404I]
inactive: SHP2 C-SH2 domain E139D 1.74 | [1] 1.58 | SHP2 N-SH2 domain L43F 2.15 | SHP2 N-SH2 domain T42A 1.48 | SHP2 N-SH2 domain T52S 1.75 | [2] 1.7

YHLLPYTIRAM [PARS2_Y93_V95I]
inactive: SHP2 C-SH2 domain E139D 1.86 | [1] 2.19 | SHP2 N-SH2 domain L43F 2.24 | SHP2 N-SH2 domain T42A 1.89 | SHP2 N-SH2 domain T52S 1.97 | [2] 1.87

YHLLPYTVRAM [PARS2_Y93]
inactive: SHP2 C-SH2 domain E139D 2.23 | [1] 2.31 | SHP2 N-SH2 domain L43F 1.99 | SHP2 N-SH2 domain T42A 1.82 | SHP2 N-SH2 domain T52S 2.09 | [2] 1.65
